Experimental data from PubChem BioAssay AID488969 (Vanderbilt High Throughput Screening Facility, 2010).
Over roughly 110,000 compounds, “z-score” has its median near -0.1; the highest 2% begin near 2. The list shows a part of the results. Calls of active or inactive are those of the source.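 The calls were made as follows: active = z-score in the third read window above 3 or below -3; inactive = the rest.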

target: Metabotropic glutamate receptor 8 (Rattus norvegicus) (UniProt P70579); assay: mGluR8 Gi/Go-coupled signaling modulation – cell-based, rat, thallium flux, HTS, primary screen (AID 488969); conditions: HEK293 rat mGluR8, GIRK (G protein-gated inwardly rectifying potassium channel) thallium flux, FluoZin2; at 10 µM; stronger effect = higher value; submaximal glutamate (EC20) added with thallium
Chain of UniProt P70579 (P70579 whole entry, looked up): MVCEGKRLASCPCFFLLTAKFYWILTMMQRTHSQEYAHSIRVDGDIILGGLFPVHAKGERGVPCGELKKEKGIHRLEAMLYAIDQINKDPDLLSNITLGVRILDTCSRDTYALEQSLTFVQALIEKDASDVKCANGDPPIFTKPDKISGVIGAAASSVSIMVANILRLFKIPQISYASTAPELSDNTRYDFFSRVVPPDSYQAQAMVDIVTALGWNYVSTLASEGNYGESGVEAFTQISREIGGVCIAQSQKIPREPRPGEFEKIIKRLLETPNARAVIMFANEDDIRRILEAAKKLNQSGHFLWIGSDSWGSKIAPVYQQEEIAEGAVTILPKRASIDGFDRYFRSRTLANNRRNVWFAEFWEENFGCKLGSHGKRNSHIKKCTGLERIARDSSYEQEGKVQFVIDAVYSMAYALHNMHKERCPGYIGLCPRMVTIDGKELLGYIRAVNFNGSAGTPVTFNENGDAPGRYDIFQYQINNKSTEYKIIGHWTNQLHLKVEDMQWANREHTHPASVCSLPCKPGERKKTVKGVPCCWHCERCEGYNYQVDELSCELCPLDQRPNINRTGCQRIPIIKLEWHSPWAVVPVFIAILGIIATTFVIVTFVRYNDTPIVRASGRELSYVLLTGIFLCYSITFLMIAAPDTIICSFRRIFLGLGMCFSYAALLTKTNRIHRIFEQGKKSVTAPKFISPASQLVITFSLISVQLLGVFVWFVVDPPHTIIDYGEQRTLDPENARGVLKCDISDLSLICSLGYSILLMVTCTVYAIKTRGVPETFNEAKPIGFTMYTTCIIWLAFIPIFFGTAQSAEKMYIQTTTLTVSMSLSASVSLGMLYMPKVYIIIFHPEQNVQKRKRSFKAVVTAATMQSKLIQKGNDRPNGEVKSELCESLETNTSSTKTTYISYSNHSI

| SMILES | z-score |
| --- | --- |
| COc1ccc(N(CC(=O)N/N=C/c2ccc(-c3ccc([N+](=O)[O-])cc3)o2)S(=O)(=O)c2ccc(C)cc2)cc1Cl | -0.151 |
| Cc1ccc(C2C(/C=C3/SC(=S)NC3=O)=C(c3cccs3)Oc3ccccc32)cc1 (stereo not given) | 2.55 |
| CN1c2ccccc2C(O)=C(C(=S)Nc2ccccc2)S1(=O)=O | -0.0251 |
| COc1cc(OC)c(N2CC34C=CC(O3)C(C(=O)O)C4C2=O)cc1Cl (stereo not given) | 0.0804 |
| Cc1ccnc2ccc(-c3nc4ccccc4o3)cc12 | -0.172 |
| CCN1CCN(S(=O)(=O)c2cc(C)c(OC)cc2C)CC1 | -0.16 |
| Cc1cccc(C)c1Nc1nnc(SCC(=O)NC(=O)c2cccn2C)s1 | -2.05 |
| CCNC(=S)N1CCN(C(=O)c2ccco2)CC1 | 0.0228 |
| Cc1cccc(N(C(=O)Cc2cccs2)C(C(=O)NC2CCCC2)c2ccsc2)c1 (stereo not given) | -0.147 |
| CSc1ccc(-c2nnn(Cc3ccc(C)cc3)n2)cc1 | -0.327 |
| CC(=O)N1CCN(c2ccc(NC(=O)C(C)Oc3ccc(Cl)cc3Cl)cc2)CC1 (stereo not given) | 0.0136 |
| COc1ccc(/C=C/C(=O)NC(=S)Nc2ccc(S(=O)(=O)Nc3nccnc3OC)cc2)cc1 | 0.291 |
| O=C1C=C(OCc2ccccc2)CN1 | 1.32 |
| O=C(Nc1cc(Cl)ccc1Oc1ccccc1)c1cnccn1 | 0.264 |
| COc1cc(C(=O)Oc2cccc(C)c2)cc(OC)c1OC | 0.178 |
| Cc1nnn(-c2nonc2N)c1C(=O)N/N=C/c1cccc2ccccc12 | -0.569 |
| CCOc1ccccc1NC(=O)CSCC(=O)Nc1ccccc1 | 0.882 |
| Nc1nc(NC(=O)CCCC(=O)O)nn1-c1ccccc1 | 0.365 |
| O=C(CSc1ccc2ccccc2c1)NC1CCCc2ccccc21 (stereo not given) | -0.0812 |
| Cc1cc(C)n(CC(=O)NC2CCCCC2)n1 | 0.0582 |
| CCCN(CCC)C1Sc2ccc(C(=O)OC)cc2NC1=O (stereo not given) | -0.0969 |
| Fc1ccccc1-c1nnc2c3ccccc3nc(N3CCOCC3)n12 | -0.0489 |
| COc1cc(C2C(C#N)=C(N)Oc3n[nH]c(-c4ccncc4)c32)cc(OC)c1OC (stereo not given) | -0.208 |
| N#Cc1c(/N=C/c2ccccc2)oc(-c2ccccc2)c1-c1ccccc1 | -0.119 |

| SMILES | z-score |
| --- | --- |
| Cc1ccc(C(=O)NC(=S)Nc2ccccc2C(F)(F)F)cc1C | active: 5.48 |
| O=C(O)CCN1C(=O)/C(=C/c2ccc(-c3nc4ccccc4s3)o2)SC1=S | 1.83 |
| Cc1ccc2c(c1)N(C(=O)c1ccco1)C(C)(C)c1ssc(=S)c1-2 | -0.788 |
| COC(=O)c1nn(-c2ccccc2)c(Cl)c1/C=N/OC(=O)c1ccc(Cl)c(Cl)c1 | -0.925 |
| CCS(=O)(=O)Nc1ccc(C2=NN(C(=O)c3ccco3)C(c3ccc(C)cc3)C2)cc1 (stereo not given) | -0.0281 |
| Clc1ccc2[nH]c3c(c2c1)CCc1cn[nH]c1-3 | 0.0573 |
| O=S(=O)(Nc1cccc(CCc2ccccn2)c1)c1ccc2ccccc2c1 | -0.324 |
| CCNC(=O)CN(c1ccc(C)cc1)S(=O)(=O)c1ccccc1 | 0.163 |
| O=C(c1cc(-c2cccs2)on1)N1CCc2ccccc2C1 | -0.343 |
| O=C1c2ccccc2C(=O)N1/N=C/c1ccc(O)c(O)c1 | -0.492 |
| Cc1ccc(NC(=O)CCSc2nnc(C)s2)cc1 | -0.0447 |
| O=C(Nc1ncc2c(n1)CC(c1ccco1)CC2=O)c1ccccc1 (stereo not given) | 0.294 |
| CC(C)C(=O)Nc1cccc(C(=O)Nc2nnc(C(C)C)s2)c1 | -0.551 |
| CC(C)(C)c1ccccc1N=Cc1ccc2ccccc2n1 | -0.227 |
| N/C(=N\OC(=O)Nc1ccccc1)c1ncc(C(F)(F)F)cc1Cl | -0.057 |
| O=c1c2ccccc2cnn1Cc1n[nH]c(=S)n1-c1ccccc1Cl | -0.398 |
| O=C(NC(=S)Nc1ccc(N2CCCCC2)c(Cl)c1)c1ccc2c(c1)OCCO2 | 0.126 |
| Cc1c(Cl)c([N+](=O)[O-])nn1CC(=O)N1CCc2ccccc2C1 | -0.146 |
| Cc1[nH]c(=O)[nH]c(=O)c1/C=N/NC(=O)[C@H](CC(C)C)NC(=O)OC(C)(C)C | -0.0717 |
| CC(C)(C)c1ccc(C(=O)NC(=S)Nn2cnnc2)cc1 | active: 3.11 |
| CCNc1ccc(Br)cc(C(=O)/C=C/c2c(Cl)cccc2Cl)c1=O | -0.226 |
| COc1ccc(C(C)(C)C)cc1NC(=O)CCCn1c(=O)oc2ccccc21 | -0.276 |
| CCc1nc2oc3cc(OC)ccc3c(=O)c2c(=O)n1Cc1ccccc1 | -0.933 |
| COc1ccc(-c2nc(-c3ccccc3)nc(N3CCN(C)CC3)c2C#N)cc1 | 0.041 |

| SMILES | z-score |
| --- | --- |
| Cc1nn2cnc3sc4c(c3c2nc1=O)CCCC4 | -0.037 |
| O=C(Nc1cccc(-c2cn3ccccc3n2)c1)c1cccs1 | -0.698 |
| N#C/C(=C\c1ccccc1C(F)(F)F)C(=O)Nc1ccccc1F | 0.00201 |
| CCOC(=O)C(=O)Nc1ccccc1C(=O)Nc1ccc(OC)cc1 | -0.261 |
| COc1ccc(NC(=O)CC(C)(C)C)c([N+](=O)[O-])c1 | -0.0419 |
| Cc1cc(C)c2cc(CN(CCN3CCCC3)C(=O)Nc3ccc(F)cc3)c(=O)[nH]c2c1 | 1.07 |
| CN1CCN(c2ccccc2NC(=O)c2ccc(-c3ccc(Cl)cc3Cl)o2)CC1 | -0.137 |
| Cc1cccc(Nc2nc(-c3c(C)nc4ccccn34)cs2)c1 | -0.083 |
| Cc1ccc(Nc2ncnc3nc[nH]c23)cc1Cl | 0.0994 |
| O=C(CN(Cc1ccc2c(c1)OCO2)C(=O)CNS(=O)(=O)c1ccccc1)NCc1ccco1 | 0.0259 |
| CC(C)CNC(=O)NC(=O)COc1ccc(C=O)cc1 | 0.151 |
| O=C(Cn1cc(SCc2ccc(F)cc2)c2ccccc21)N1CCOCC1 | 0.648 |
| CCn1c(SCC(=O)Nc2ncc(C(F)(F)F)cc2Cl)nnc1-c1ccccc1 | -0.589 |
| Cc1ccccc1C(=O)Nc1ccccn1 | 0.161 |
| COc1cc2cc(C(c3nnnn3C(C)(C)C)N3CCc4ccccc43)c(=O)[nH]c2cc1OC (stereo not given) | 0.576 |
| O=C(CN1C(=O)c2ccccc2S1(=O)=O)N1CCN(c2cccc(Cl)c2)CC1 | -0.432 |
| CCOc1ccc(CCNC(=O)Cn2c(=O)oc3ccccc32)cc1OCC | -0.173 |
| Cc1ccc(C(=O)N2CCOCC2)cc1[N+](=O)[O-] | -0.167 |
| COC(=O)Cn1c(=NC(=O)C2COc3ccccc3O2)sc2cc(S(N)(=O)=O)ccc21 (stereo not given) | -0.375 |
| Cc1ccc(CNC(=O)CN2CCCC(C)C2)cc1 (stereo not given) | -0.196 |
| CS(=O)(=O)c1ccc(C(=O)NC2CCOC2=O)cc1 (stereo not given) | 0.0914 |
| C=CCn1c(CCNC(=O)c2cccs2)nnc1SCC(=O)Nc1cccc(F)c1 | -0.147 |
